Binding signal data for 54 sequences are collected here from publication PMC7819943, “Rice protein-binding microarrays: a tool to detect cis-acting elements near promoter regions in rice”.

The list shows a part of the results.

In the assay the target is T1, OsWOX13 (Oryza sativa, UniProt Q5QMM3 1-267).
T1 sequence: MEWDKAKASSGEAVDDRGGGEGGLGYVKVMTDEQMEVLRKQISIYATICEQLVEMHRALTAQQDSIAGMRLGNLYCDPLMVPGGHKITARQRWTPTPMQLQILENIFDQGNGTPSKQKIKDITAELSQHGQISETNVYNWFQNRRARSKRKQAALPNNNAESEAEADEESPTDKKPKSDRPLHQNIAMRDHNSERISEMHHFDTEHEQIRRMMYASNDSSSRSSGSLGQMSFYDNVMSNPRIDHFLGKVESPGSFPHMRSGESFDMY
Put plainly: protein-binding microarray (RPBM); PBS, 2% BSA, 51.3 ng/ul salmon testes DNA, 50 uM zinc acetate, 200 nM TF, 25 C, 1 h; high values mean tight binding. The note with it: protein: recombinant; tags: N-terminal polyhistidine and DsRed monomer fusion (pET32a); label: CyDye5-dUTP incorporated in the synthesized complementary strand; 3' TTTTT single-stranded linker to array surface; dsDNA, one strand shown. The procedure, abridged: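 Binding signal is defined as the fluorescence intensity of each feature in arbitrary units, read on an Axon 4000B scanner. Transcription factors with N-terminal polyhistidine and DsRed fusions came from E. coli BL21-CodonPlus and were purified on Ni–NTA. They were incubated at 200 nM for 1 h at 25 °C on a custom Agilent array that had been made double-stranded with Cy5-dUTP, with 50 µM zinc acetate present, and the array was washed.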
As for “CCCTGATGGCGTGATCAATCTAGTCTTCTGTGTATATAAACGGAGTCACCTAGTGCAG”, the binding signal is 8370 fluorescence intensity (a.u.).

In the case of “AAAACTAATTACAGAATCCGTCAGTAAATCGTGAGATAAACGGAGTCACCTAGTGCAG”, the binding signal is 19000 fluorescence intensity (a.u.).

With “ATTTTAAATTTATTATTTAATTATATACTGTATAAACTTACGGAGTCACCTAGTGCAG”, the binding signal is 9470 fluorescence intensity (a.u.).

Regarding “GATGGTATTAACATATGATTGATTGAGTTTTAATTATTACCGGAGTCACCTAGTGCAG”, the binding signal was 28700 fluorescence intensity (a.u.).

On to “GTGTATAATAGATAATCTAGTTTCATGATGAATTGGATACCGGAGTCACCTAGTGCAG”, for which the binding signal was 17100 fluorescence intensity (a.u.).

Take “GCTGTCAACGACAAAATTATCATTTGTTGTTTTGACATAGCGGAGTCACCTAGTGCAG”: the binding signal was 3950 fluorescence intensity (a.u.).

In the case of “AATAGACAGCATTTTCGGCTTCCAACCGGCTACCTTCTTTCGGAGTCACCTAGTGCAG”, the binding signal was 5900 fluorescence intensity (a.u.).

Regarding “GTAGCAAATTGAATAGCTTCAAACTCCATCCCACATAGGTCGGAGTCACCTAGTGCAG”, the binding signal is 20000 fluorescence intensity (a.u.).

For the sequence “GACCCAGGTAATTGCTGCTGCTGTAGTTGCCTTTGTTGGTCGGAGTCACCTAGTGCAG”, the binding signal was 3790 fluorescence intensity (a.u.).

Regarding “CCTAATCAGCATTTTAATTACTGGGATTCCAACTTACACACGGAGTCACCTAGTGCAG”, the binding signal was 12200 fluorescence intensity (a.u.).

As for “TGGTGTAGATTGATTTATGTAGTACGGATTAATTGGCATTCGGAGTCACCTAGTGCAG”, the binding signal was 50300 fluorescence intensity (a.u.).

Consider “GATATGTAGGACCCACATGATTCAATGACATGTGGGTCAGCGGAGTCACCTAGTGCAG”, for which the binding signal is 48900 fluorescence intensity (a.u.).

As for “ATAATTTAGAATTATTATTTATTTTATTTGTGACTGGCTTCGGAGTCACCTAGTGCAG”, the binding signal was 5280 fluorescence intensity (a.u.).

With “AAGTTAATTATATACTATAGAATTATCATTCCGATCCCTACGGAGTCACCTAGTGCAG”, the binding signal was 25600 fluorescence intensity (a.u.).

Turning to “CCCACTAACAGAGTAACCCAACAGCCCAACTGATTTTGATCGGAGTCACCTAGTGCAG”, the binding signal is 4440 fluorescence intensity (a.u.).

With “GGATAATTTTGCGCGTAATTCAAATAAGACTTGTGTAGCGCGGAGTCACCTAGTGCAG”, the binding signal is 28000 fluorescence intensity (a.u.).

“GAATAATTTACCCATTTATTATTGATCTTTATTCTTTGACCGGAGTCACCTAGTGCAG”: the binding signal is 30400 fluorescence intensity (a.u.).

Regarding “TTCATGGTGATTGATCACTCTCGGACACTGATTTTCCACTCGGAGTCACCTAGTGCAG”, the binding signal was 46300 fluorescence intensity (a.u.).

With “GTTTGATTGTCCTAAAATTTCAACTAACACTGTATCATTCCGGAGTCACCTAGTGCAG”, the binding signal is 34500 fluorescence intensity (a.u.).

In the case of “TTGTGATTTCCTTAATATAGAATAGAACCCTGCTCATATACGGAGTCACCTAGTGCAG”, the binding signal was 11500 fluorescence intensity (a.u.).

Consider “CCAATCTAAATTAAATTGTGACCATTTAACTCACCATGTTCGGAGTCACCTAGTGCAG”, for which the binding signal is 35500 fluorescence intensity (a.u.).

“TTGGATAATTGTCTAACCTAAAAGTGGCAAATAGTTAAATCGGAGTCACCTAGTGCAG”: the binding signal was 9260 fluorescence intensity (a.u.).

In the case of “AAGCAATGATTGGATTTCACGTGGCCTGCCTGCGGAGTAGCGGAGTCACCTAGTGCAG”, the binding signal is 43300 fluorescence intensity (a.u.).

As for “ACCCAGAGCAATTTAAAATCTAATTGCATTCCTATCTTCACGGAGTCACCTAGTGCAG”, the binding signal is 9940 fluorescence intensity (a.u.).

Regarding “TTAGATAGGAAAACTTATGACTGCATTTAAAATGGGATGGCGGAGTCACCTAGTGCAG”, the binding signal was 10500 fluorescence intensity (a.u.).

For “ATAACAAAATTAATGAGAGAAGAGAAGAGTTAATCCAGTGCGGAGTCACCTAGTGCAG”, the binding signal was 7620 fluorescence intensity (a.u.).

With “CCCAAGTCAATCAAATACTGAATCCTTTGCACTGATCATTCGGAGTCACCTAGTGCAG”, the binding signal is 18300 fluorescence intensity (a.u.).

On to “AACTCTAATTTACTGTTGGTTGGTGCAATATCAGATGGATCGGAGTCACCTAGTGCAG”, for which the binding signal is 10300 fluorescence intensity (a.u.).

As to “GAATTAGCTTGATTGACAGAAACAAATGGCTACAACTACACGGAGTCACCTAGTGCAG”, the binding signal was 50600 fluorescence intensity (a.u.).

As for “TCAACATTAACTGATTACCATTAATTAATAATTTATGATCCGGAGTCACCTAGTGCAG”, the binding signal is 39600 fluorescence intensity (a.u.).

In the case of “CAAATTAAGCGAATAATTTATTTATCAATAGAACTTCAATCGGAGTCACCTAGTGCAG”, the binding signal was 5950 fluorescence intensity (a.u.).

Take “CAAGATTTATTGTCCTCCAACTGAACTTGGTGGGTGTGGTCGGAGTCACCTAGTGCAG”: the binding signal was 6920 fluorescence intensity (a.u.).

Take “CACTAATGGCTGACAATTACTACTTCTGACCACTCATACTCGGAGTCACCTAGTGCAG”: the binding signal was 11700 fluorescence intensity (a.u.).

As for “TTTAGGGTTAATTGGACCCATGTCATTACAAATTTGCCATCGGAGTCACCTAGTGCAG”, the binding signal is 19800 fluorescence intensity (a.u.).

Turning to “GGCGGTTTAATTGTTCGTTAGGAGCCGAATTACGGCATAGCGGAGTCACCTAGTGCAG”, the binding signal is 4100 fluorescence intensity (a.u.).

As to “AACTAATCTCTGACTTATAATTTCTCATATACTATAAGGTCGGAGTCACCTAGTGCAG”, the binding signal was 10100 fluorescence intensity (a.u.).

With “ATCGAATAAATTATAATGGTCCATGTGGTCTATATATTTTCGGAGTCACCTAGTGCAG”, the binding signal is 5830 fluorescence intensity (a.u.).

On to “GATGGTCTATTAGTCCGTGATTAATTAAGTATTAGCTATTCGGAGTCACCTAGTGCAG”, for which the binding signal was 8910 fluorescence intensity (a.u.).

As to “AAAATTGTAACTGTGCCATTATAATTTTACAAAATTTGAGCGGAGTCACCTAGTGCAG”, the binding signal is 7630 fluorescence intensity (a.u.).

Turning to “TAGGGATTTAAATTGGTCCTGTTTAAATAGTTTGAGGTACCGGAGTCACCTAGTGCAG”, the binding signal was 13100 fluorescence intensity (a.u.).

As for “TCTCGCCCAATTGGCAATCACAGGTTCAATTCGCAGCCAACGGAGTCACCTAGTGCAG”, the binding signal was 39000 fluorescence intensity (a.u.).

Turning to “ATCTAATTTGTATATAAATTGAATAAATTTGATCACGTGACGGAGTCACCTAGTGCAG”, the binding signal is 16100 fluorescence intensity (a.u.).

For “TGAATTTGATTAAAACCTAATTGTTTAAAATATTAAGTCACGGAGTCACCTAGTGCAG”, the binding signal is 16900 fluorescence intensity (a.u.).

On to “CATTGACTAGTATAAATTTGAACTAGCCAACATCATATAACGGAGTCACCTAGTGCAG”, for which the binding signal was 6640 fluorescence intensity (a.u.).

As to “AACAACTGTACTAATTGGGCTGCTGTCCTGACTGACTCAGCGGAGTCACCTAGTGCAG”, the binding signal is 5980 fluorescence intensity (a.u.).

With “GGATGATCAAAATTAGACACAGAAACTCATGACTGCACTTCGGAGTCACCTAGTGCAG”, the binding signal is 15700 fluorescence intensity (a.u.).

With “CAGTGACAGCGAGGAAATTATAGTTGCCTGGTCAAGTAAACGGAGTCACCTAGTGCAG”, the binding signal is 6230 fluorescence intensity (a.u.).

Turning to “CTTCTAATTAGAGACTTGGTGTGTCACATAGTCGTCAGGTCGGAGTCACCTAGTGCAG”, the binding signal was 19200 fluorescence intensity (a.u.).

Take “TTACTTTGATCAAAATCAAATTGTTTTAAATTTGACAAAGCGGAGTCACCTAGTGCAG”: the binding signal is 6720 fluorescence intensity (a.u.).

With “CAGATGTGACTGGTATATATTGAAAGGTGCGAGGCACTGGCGGAGTCACCTAGTGCAG”, the binding signal was 9620 fluorescence intensity (a.u.).

As for “ACGTCCAAATCACATTATATCAGTTCCTGTTTGTAACCGCCGGAGTCACCTAGTGCAG”, the binding signal was 3210 fluorescence intensity (a.u.).

As for “TGGAATTGGATACTTTCATCTGGATTTCCTGGATGTGTGGCGGAGTCACCTAGTGCAG”, the binding signal was 4120 fluorescence intensity (a.u.).

On to “CCTCCTCCTCCCCTTGATTGCTAGGTCGGTCTCTAGGCGGCGGAGTCACCTAGTGCAG”, for which the binding signal was 6900 fluorescence intensity (a.u.).

Regarding “GTTTGATGTGTGGAATATGTGATGGACTATCTGAGGACTACGGAGTCACCTAGTGCAG”, the binding signal is 3990 fluorescence intensity (a.u.).
